The source of these data is US20240285552A1 (priority 2020, published 2024).

Counter-ions that a name gives are not always drawn.

This assay has as its target T1, recombinant AXL with the NTD of the spike protein (Homo sapiens, UniProt P30530).
T1 sequence (P30530 26-451 limits assumed): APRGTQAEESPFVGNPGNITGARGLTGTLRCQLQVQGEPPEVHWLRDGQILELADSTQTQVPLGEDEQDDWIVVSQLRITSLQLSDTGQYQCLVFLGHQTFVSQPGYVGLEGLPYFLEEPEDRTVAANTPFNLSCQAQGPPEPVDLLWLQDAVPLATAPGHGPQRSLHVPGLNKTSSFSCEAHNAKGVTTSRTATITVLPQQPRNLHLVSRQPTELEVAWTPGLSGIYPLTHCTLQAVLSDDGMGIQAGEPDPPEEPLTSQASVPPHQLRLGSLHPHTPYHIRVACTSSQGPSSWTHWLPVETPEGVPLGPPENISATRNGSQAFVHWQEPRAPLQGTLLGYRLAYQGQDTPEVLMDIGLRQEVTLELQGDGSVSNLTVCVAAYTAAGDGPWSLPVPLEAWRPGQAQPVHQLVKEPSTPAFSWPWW
It counts as binding. Particulars: micromolar range.

For the compound `CN(Cc1cc(Br)cc(Br)c1N)C1CCCCC1` [BHH, Bromhexine hydrochloride], the “effect on interaction of recombinant AXL with the NTD of the spike protein” value is “inhibit”.

On to `Nc1c(Br)cc(Br)cc1CN[C@H]1CC[C@H](O)CC1` [AMB, 4-[(2-amino-3,5-dibromophenyl)methylamino]cyclohexan-1-ol; hydrochloride], for which the “effect on interaction of recombinant AXL with the NTD of the spike protein” value is given as “inhibit”.
